In the supplement of paper PMC11417369:
± gives the standard deviation of the averaged measurements. This is one part of the list.

System: PfAP2-EXP AP2 domain (GST-tagged)
Assay: gcPBM binding intensity (ln(normalized median fluorescence intensity)); higher = stronger DNA binding
In short: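 Probes on an Agilent 4 × 180k array were primer-extended, double-stranded and 36 bp long, taken from intergenic genomic regions, with negative controls added. GST-tagged P. falciparum DNA-binding domains from E. coli, about 25 μg on average, were applied to the array for 1 h in 1× PBS containing 1% milk, 0.2 mg/ml BSA, 0.5% salmon testes DNA and 0.03% Triton X-100. Binding intensity, obtained after Alexa488 anti-GST antibody detection and a 488 nm scan, is the highest Masliner-normalised natural-log median intensity across replicate spots of either probe orientation.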

Sequence | gcPBM binding intensity (ln)
TACTTTTTAGGAAAGTGTACAAGCATATAAGGAATA [XGTACX_site2834] | 8.93 ± 0.47
TTTCATATATATGAAACACACAAAGGAAAAAAAATT [CACACA_site4144] | 8.87 ± 0.46
ATATAATAAAATTAATGTACATATATGTATTATATA [XGTACX_site3283] | 8.4 ± 0.22
GCTCATATGACAACAACACACAAAAAAATAAAATGA [CACACA_site714] | 8.62 ± 0.6
AAAAAAAAAAAACACACACACATAGACCTCCAATAG [CACACA_site3562] | 8.68 ± 0.7
ACAAGTTTATTTGTTGCACACATATAAGTAGAGAAA [CACACA_site8994] | 8.59 ± 0.22
AACATAATCTCATATACACACAAAAATATTGAAATA [CACACA_site7085] | 8.61 ± 0.43
TACTTATATACACATGTATATTATATATATAATATA [XGTACX_negctrl_site335] | 8.67 ± 0.4
CACACGCACGGACACACACACATATAAAATCTATAT [CACACA_site6428] | 8.8 ± 0.26
TGTTATTAAAATATAGTGCATAATTAACCATTATAA [GTGCAC_site9594] | 8.26 ± 0.22
TAATAATATATTTGTAGTACACAATTTTTTATAACT [XGTACX_site3951] | 8.31 ± 0.3
TACTATAACAGACATACACACAAAAAAAAAAAAAAA [CACACA_site538] | 8.18 ± 0.46
ATATTTAACAGGTTAAAAATATAAACAAATAAATAA [CACACA_negctrl_site907] | 8.52 ± 0.43
ATTTTTTTTTTTTTTTTTTTTTTTTTTTAATCTGGA [CACACA_negctrl_site1347] | 7.88 ± 0.46
GAGAGGATAGTTCACAGTACTCAGTAACTCTACGGA [XGTACX_site4875] | 8.63 ± 0.61
AAAAAAAAATAATATACACACTCCAATATAAAAAAT [CACACA_site3958] | 8.65 ± 0.43
CGCACTAAAAAACACACACACACACCCATATATATA [CACACA_site4152] | 8.65 ± 0.3
TGTGTATTATAAACATGTACATAAAAATACGATATT [XGTACX_site3643] | 8.89 ± 0.35
TTTTTCCCCCTTTTTTTGATTTTTATCTTAATTCTA [TGCATGCA_negctrl_site287] | 8.34 ± 0.37
ATATAATAACAAAAGGTGCGCATTAAGACAAAAAAA | 9.22 ± 0.2
TATTATATTGTTCATTTACACTTTCATTTTAAAAAA [CACACA_negctrl_site260] | 8.69 ± 0.47
TTTTTTCATTTTTTATTTTTTTATTTTTTACATATT [GTGCAC_negctrl_site137] | 8.53 ± 0.45

Sequence | gcPBM binding intensity (ln)
AAGGATTATTTTAATCGTACATGTGTAAATAATATA [XGTACX_site6177] | 8.73 ± 0.35
AATGATGTTGTATTGTTTCGATATAACATCTAATTT [GTGCAC_negctrl_site309] | 8.27 ± 0.4
TTTTTTAAAATAATAGGTACACATAAAAAAAAAAAA [XGTACX_site2517] | 8.72 ± 0.67
CATACATACATACATACACACATATATATATATATG [CACACA_site1995] | 9.23 ± 0.17
TTATTTATTTTCATATGTACTTATTTATAGAGGTTG [XGTACX_site5599] | 8.8 ± 0.67
TATATATATAGACACACACACATATAAATAAATAAA [CACACA_site444] | 9.03 ± 0.071
GTGCGTGCGTGTACTTAACACACATAATATGTATTT [CACACA_site8336] | 8.58 ± 0.028
TAATTCCATAAGTAAACACACAAATGCCAAAATTTT [CACACA_site3205] | 8.63 ± 0.37
TCCATATGCAAACTGGTGCACAAGTAGCTTTTATAT | 8.99 ± 0.3
TTCTTTGCTTCTGTTTCACACATTTTTAAAATAAGC [CACACA_site4741] | 9.12 ± 0.37
TTTCTTTTTCTAGTTATTTTTACTTATCCCTAATTT [TGCATGCA_negctrl_site460] | 8.83 ± 0.48
TTATAATTAAGATATAATCAATAATAACAAATGAAC [CACACA_negctrl_site1690] | 8.77 ± 0.42
ATATATAAAAATATTTGTACATATAGTTATATTTAT [XGTACX_site6114] | 8.43 ± 0.67
TTAAGCCGCAATATGGGTACATAGGAAGAAGGGGAA [XGTACX_site8397] | 8.87 ± 0.38
TTAAAGGGAATGTATACACACGTTTCTCTATGTTAT [CACACA_site4793] | 8.59 ± 0.31
TATATATTGTTATATACACACATGTATATAAAAAAT [CACACA_site3221] | 8.18 ± 0.33
GAGATGACATTACACAGTACCCAGGAAATCTACGGA [XGTACX_site4931] | 8.64 ± 0.54
CAAAAAAGGTCCCGGAGTACATATATAATTTTTTTT [XGTACX_site458] | 8.86 ± 0.33
ATTGTCCTAAATACTACAAAGTAGATCTTTAATATT [CACACA_negctrl_site1795] | 8.29 ± 0.32
ATTTGAGAGTTAACAAAATATTTGGCCATCTTTTAT [XGTACX_negctrl_site447] | 8.34 ± 0.41
TATAATAAATCATATGCATGTTGAAAAAAAAAAAAA [TGCATGCA_site923] | 8.56 ± 0.45
AATGTCCTTATTTGCACACACACATATAAGAAATTT [CACACA_site3186] | 8.8 ± 0.28

Sequence | gcPBM binding intensity (ln)
AACTCATAGCGGTGTGCACACAAAAAATTAAAAAAA [CACACA_site3033] | 8.94 ± 0.33
TCATAAATGAAACACACACACACATCTGGATACCCC [CACACA_site3332] | 9.18 ± 0.61
AATCAATATAAATAAAATTTTTAATTTTAACCCTAA [GTGCAC_negctrl_site266] | 8.05 ± 0.38
ATTATATATATAAAGTGTACAAAAAAAAAAAAAAAA [XGTACX_site3134] | 8.46 ± 0.33
ATATGTAGTTTTTACCTAATAAAAAAAAAAAAAAAA [CACACA_negctrl_site672] | 8.19 ± 0.37
TTGTATTTACACGATCAACCAAATGGTATATAAATA [GTGCAC_negctrl_site167] | 8.45 ± 0.45
AAATCATTCCTTTATTCACACAATATCTGTATTTAT [CACACA_site4407] | 8.8 ± 0.42
TAAACATATAAAAAGGGTACACATTAAACATAGTAT [XGTACX_site7096] | 8.72 ± 0.45
ATAGCTAAGATAGCTTGTACATATATTTACATATAT [XGTACX_site3694] | 8.31 ± 0.29
AAAACAAATTAAAATCGTACAATTATAATGTTAATG [XGTACX_site180] | 8.46 ± 0.42
TATAAAATAAAAATTATATATTTTAAATGGATACAA [TGCATGCA_negctrl_site284] | 8.32 ± 0.45
ATGCACATTTATAAAAGTACATGTATGTAATATGTT [XGTACX_site830] | 8.77 ± 0.33
ATTTAAATGAAAAAATGTACAAAAAGATTTAAACTC [XGTACX_site1489] | 9.04 ± 0.4
ACATTTTGTGTTTTAGCACACAATTTTTCAGAATAT [CACACA_site2961] | 8.27 ± 0.2
AATATATATTTATAAACACACACCAAAATTTGTGCT [CACACA_site3091] | 8.64 ± 0.38
TATTAGCATGTTATTACACACAATATAAGATATATA [CACACA_site6775] | 8.33 ± 0.42
ATATTATAATATTTATGTACATATATATAATATATA [XGTACX_site1633] | 8.35 ± 0.24
TGTATAAATATATATACACACATATTTATATATATA [CACACA_site755] | 8.575 ± 0.049
TATATATGTATCATTACACACATGTATACTTATTTG [CACACA_site4138] | 8.68 ± 0.43
ATATATGTGCCCATATATATATATATAAATATATGT [GTGCAC_negctrl_site226] | 8.51 ± 0.33
TACATTTGTATAAATAGTACGCGAAAACAAAAAAAA [XGTACX_site6246] | 9.02 ± 0.43
ATTTCCCCTTTTTATTGTACATTTTTATTTGTTACT [XGTACX_site4845] | 9.14 ± 0.64

Sequence | gcPBM binding intensity (ln)
TAAAAAAAAACAGAAACACACATTATTCATATATAT [CACACA_site2049] | 8.58 ± 0.33
AAAATATTTATGTATGCATGTTGTAATATTTCTTTA [TGCATGCA_site296] | 8.57 ± 0.42
TATGCTATATATTTAGTGCATATATATAACTTTTAT [GTGCAC_site9902] | 8.26 ± 0.23
TTTTAAACAGGACACACACACATATATATATATATA [CACACA_site4664] | 10.1 ± 0.42
ATGTAATGTTATGTTATGTTTTTTTTTTTTTTGTGT [CACACA_negctrl_site1264] | 8.23 ± 0.58
AAAATTATATATTTTAGTACATAAAATATTGACATA [XGTACX_site2581] | 8.28 ± 0.36
GTTATTGTAAAAAGATTACACACGTTCTATATACTT [CACACA_site2473] | 8.62 ± 0.37
GGAATATGTATATTTTGTACGTATACATTTTTTGGG [XGTACX_site7681] | 9.49 ± 0.75
TTTATACAAAAAAACAAAATCAAACAAAAAAAAAAA [CACACA_negctrl_site252] | 8.36 ± 0.3
GATATATTTTATATATGTACATACAGTGGTAAATAT [XGTACX_site1324] | 8.7 ± 0.24
TTTTCTACATCTTGTTGTACGAAAAATAAAAAAAAT [XGTACX_site4620] | 8.72 ± 0.47
AGTACGTAAATTATAATACACACTATAGGATATTCT [CACACA_site2559] | 8.57 ± 0.35
AGTAGAAAAGGAACATGTACGAATTAAAAAAATAAT [XGTACX_site2347] | 9.14 ± 0.44
TCTGTAAATATGTATACACACATATATGATCAATAT [CACACA_site3234] | 8.7 ± 0.38
AATTAAATGATTTATACATGCATATAAATATAAATA [TGCATGCA_site579] | 8.53 ± 0.25
TACACCATGATACATACACACAGACATATACACATT [CACACA_site6601] | 8.66 ± 0.37
ACATATATATATATATATATATATATATTTATTTAT [CACACA_negctrl_site734] | 8.785 ± 0.064
AAAAAACATTTGATCTGTACGCATAGACAATTATAT [XGTACX_site960] | 8.49 ± 0.28
TAAAAGAAAGCACATACACACACAAAAAAAAAAAAG [CACACA_site8159] | 8.66 ± 0.5
AATAATATGTTATCTCTTACACATATAAAAAATAAA [XGTACX_negctrl_site370] | 8.18 ± 0.51
TTATACTGTACAAAAAGAATAGCAGTATAACAAAAA [CACACA_negctrl_site755] | 8.88 ± 0.46
